Test results: PubChem BioAssay AID1159614 (National Center for Advancing Translational Sciences (NCATS), 2016)
The whole screen tested about 45,000 compounds, of which about 65 (0.1%) were called active. Calls follow the shape of the dose curve; as a rule, active = well fitted activation curve with a large enough effect; inconclusive = small, poorly fitted or top-dose-only effect; inactive = no such curve, though single readings can be large or run the other way. This is one part of the list.

Molecular target: Galactocerebrosidase (Homo sapiens) (UniProt P54803)
Sequence of UniProt P54803 (P54803 whole entry, looked up): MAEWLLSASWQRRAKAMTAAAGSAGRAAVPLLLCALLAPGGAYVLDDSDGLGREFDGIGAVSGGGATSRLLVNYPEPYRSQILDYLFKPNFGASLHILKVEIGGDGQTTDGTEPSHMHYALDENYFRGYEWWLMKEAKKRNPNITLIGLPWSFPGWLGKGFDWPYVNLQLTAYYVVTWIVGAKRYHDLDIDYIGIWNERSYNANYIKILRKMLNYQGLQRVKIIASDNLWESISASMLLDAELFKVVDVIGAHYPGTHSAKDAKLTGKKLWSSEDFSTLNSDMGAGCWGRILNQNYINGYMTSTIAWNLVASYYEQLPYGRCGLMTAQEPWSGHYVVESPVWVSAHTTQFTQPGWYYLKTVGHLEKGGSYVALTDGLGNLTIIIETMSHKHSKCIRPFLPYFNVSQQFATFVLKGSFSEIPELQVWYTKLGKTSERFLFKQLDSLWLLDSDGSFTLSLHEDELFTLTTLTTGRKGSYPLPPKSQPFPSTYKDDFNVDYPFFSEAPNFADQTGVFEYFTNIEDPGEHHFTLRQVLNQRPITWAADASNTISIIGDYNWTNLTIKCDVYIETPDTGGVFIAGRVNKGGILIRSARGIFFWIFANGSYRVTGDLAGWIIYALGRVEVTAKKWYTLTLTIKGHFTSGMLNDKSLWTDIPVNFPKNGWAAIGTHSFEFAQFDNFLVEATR
Assay: A Novel Cell-Based Assay to Identify Small Molecules for B -Galactocerebrosidase; also: nearly all actives have a fitted effect of over 65% in size; as to activation: 0% is about no effect
Details: 145M-Twi-hGALC-G270D cells (Twitcher mouse brain line with human GALC G270D), HMU-beta-Gal fluorescence, 48 h; series mostly up to 57.5 µM; activation: at the top concentration
Procedure, shortened: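 Mutant human GALC (G270D), stably expressed in a Twitcher mouse brain cell line lacking endogenous GALC, is measured in live-treated cells via 6-hexadecanoylamino-4-methylumbelliferyl-β-galactoside hydrolysis (0.1 mM final, pH 5.2) with fluorescent detection.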
Potency is read from the fitted curve at half-maximal effect.

Row | Compound | activation | Potency
1 | Cc1ccc(NC(=O)C2CCCN(c3ncnc4c3nc3n4CCCCC3)C2)cc1F (stereo not drawn) | inactive: -25.3% | 
2 | Cc1ccc2nc(/C(C#N)=C/c3cccc(Br)c3)[nH]c2c1 | inactive: -22.7% | 
3 | O=C(Cc1csc2ccccc12)NCc1cccc(Br)c1 | inactive: -9.64% | 
4 | Cc1ccccc1CN1CCC(CNc2ncnc3onc(-c4ccc(Cl)cc4)c23)CC1 | inactive: -21.4% | 
5 | CN(C)S(=O)(=O)n1cc(/C=C(\NC(=O)c2ccccc2F)C(=O)NCCCn2ccnc2)c2ccccc21 | inactive: 13.6% | 
6 | COc1ccc(Nc2c(-c3ccc(Cl)cc3)nc3cnccn23)cc1OC | inactive: -0.756% | 
7 | Cc1cc(C)cc(Oc2coc3c(CN4CCN(C)CC4)c(O)ccc3c2=O)c1 | inactive: -4.06% | 
8 | O=C(NCc1ccccc1Cl)C1CCN(S(=O)(=O)c2ccc3c(c2)CCCN3C(=O)C2CCC2)CC1 | inactive: 6.88% | 
9 | CCC12CN3CC(C)(CN(C1)C3c1ccc(O)cc1O)C2=O (stereo not drawn) | inactive: -4.3% | 
10 | CCOc1ccc(NC(=O)c2c(NC(=O)c3ccco3)sc3c2CCC(C(C)(C)C)C3)cc1 (stereo not drawn) | inactive: -8.25% | 
11 | COc1cc(NS(=O)(=O)c2ccc(NC(=O)C(C)Oc3ccc(Cl)cc3Cl)cc2)nc(OC)n1 (stereo not drawn) | inactive: -14.9% | 
12 | O=C(Nc1cccc(C(F)(F)F)c1)C1CCN(c2nnc(-n3cccc3)s2)CC1 | inactive: -10.8% | 
13 | Cc1nc2cccnc2n1-c1cccc(C(=O)NCc2ccc(OC(C)C)cc2)c1 | inactive: 5.06% | 
14 | O=C(O)CC(NS(=O)(=O)c1ccc(Cl)s1)c1ccccc1 (stereo not drawn) | inactive: -14.7% | 
15 | COc1cccc(Cn2nnc(C(=O)Nc3cc(C)ccc3C)c2N)c1 | inactive: -27.3% | 
16 | CC(C)CS(=O)(=O)c1oc(-c2ccc(F)cc2)nc1S(=O)(=O)c1ccccc1 | inactive: -16.6% | 
17 | CCOc1ccc(NC(=O)N2CCC(C(N)=O)(N3CCCCC3)CC2)cc1 | inactive: -11% | 
18 | COc1ccc(CCNC(=O)c2cnc3ccc(C)cn3c2=O)cc1 | inactive: -2.02% | 
19 | CCCS(=O)(=O)c1c(S(=O)(=O)CCC)c2cc(CC)ccn2c1C(=O)c1ccc(OC)cc1 | inactive: -11.3% | 
20 | Cc1ccc2nc(NC(=O)CSc3nccn3Cc3ccc(Cl)cc3)sc2c1 | inactive: -1.58% | 
21 | O=C(CCc1nc(-c2cccs2)no1)Nc1ccccc1[N+](=O)[O-] | inactive: -10.4% | 
22 | O=C(Cn1c(=O)n(Cc2ccccc2)c(=O)c2sc3ccccc3c21)NCc1ccccc1Cl | inactive: -10.9% | 
23 | O=C(NC1CC(=O)N(c2cccc(F)c2)C1)c1ccc(S(=O)(=O)N2CCCC2)cc1 (stereo not drawn) | inactive: -11.2% | 
24 | Cc1ccn2c(=O)c(C(=O)NCCc3ccccc3)c(O)nc2c1 | inactive: -16.2% | 

Row | Compound | activation | Potency
25 | Cc1cccc(NC(=O)c2cc(S(=O)(=O)N3CCc4ccccc43)ccc2F)c1C | inactive: -9.02% | 
26 | O=C(Nc1cccc(Cl)c1)N1CCSc2ccccc21 | inactive: -4.22% | 
27 | CSc1ccc(CCNC(=O)c2cnn(-c3ccccc3)c2-n2cccc2)cc1 | inactive: 12.8% | 
28 | CCN(CC)c1cc(C)c2cc(NC(=O)c3cccc(F)c3)ccc2n1 | inactive: -11.8% | 
29 | CC(NC(=O)CCCC1=NS(=O)(=O)c2ccccc2N1)c1ccccc1 (stereo not drawn) | inactive: -14.5% | 
30 | CCOc1ccccc1NC(=O)c1c(NC(=O)COc2ccccc2)sc2c1CCCCC2 | inactive: -6.79% | 
31 | Cc1ccc(N2C(=O)CSC23C(=O)N(CC(=O)NCCc2ccccc2)c2ccccc23)cc1C (stereo not drawn) | inactive: -17.1% | 
32 | CCCn1cc(S(=O)(=O)c2ccccc2)c(=O)c2cc(F)c(N3CCCCC3)cc21 | inactive: -13.4% | 
33 | COc1ccc(N2CCN(C(=O)C3CCCN(S(=O)(=O)c4ccc5c(c4)CCCN5C(C)=O)C3)CC2)cc1 (stereo not drawn) | inactive: -8.99% | 
34 | COCCCNC(=O)CS(=O)Cc1nc(-c2cccc(C)c2)oc1C (stereo not drawn) | inactive: -10.1% | 
35 | COc1ccc(OC)c(-c2cc(C(=O)NCCc3ccccc3)c3c(-c4ccc(C)cc4)[nH]nc3n2)c1 | inactive: 6.51% | 
36 | CCOC(=O)c1cnc2c(ccc3ccccc32)c1Nc1ccccc1OCC | inactive: -8.33% | 
37 | Cc1ccc(NC(=O)C2CCN(c3nc4ccccc4nc3C(F)(F)F)CC2)cc1F | inactive: -19.3% | 
38 | CCOC(=O)c1cc(-c2ccccc2)n(-c2cccc(C(=O)Nc3cccc(F)c3)c2)c1C | inactive: -11.4% | 
39 | CCC(C)n1c(=N)c(C(=O)NCc2ccccc2)cc2c(=O)n3cc(C)ccc3nc21 (stereo not drawn) | inactive: -16% | 
40 | COc1ccc(C(=O)Nc2nnc(S(=O)(=O)N3CCCCCC3)s2)cc1OC | inactive: -7.55% | 
41 | COc1ccc(CCNC(=O)c2sc3nc4n(c(=O)c3c2C)CCCC4)cc1OC | inactive: -9.97% | 
42 | CCc1cccc(C)c1NC(=O)CC1Oc2ccc(C)cc2NC1=O (stereo not drawn) | inactive: -6.06% | 
43 | Cc1ccc(CNC(=O)CCc2c(C)nc3c(c(C)nn3-c3ccccc3)c2C)cc1 | inactive: -2.15% | 
44 | COc1ccc(C(=O)c2oc3ccccc3c2NC(=O)COc2ccccc2)cc1 | inactive: -17.6% | 
45 | CCN(CC)C(=O)/C(C#N)=C/c1cc(O)c(O)c([N+](=O)[O-])c1 | inactive: -11.8% | 
46 | COc1ccc(Cl)cc1NS(=O)(=O)c1cc(Br)cc2c1N(C(=O)C1CC1)CC2 | inactive: -10.6% | 
47 | CC(C)n1c(=N)c(C(=O)NCc2cccnc2)cc2c(=O)n3ccccc3nc21 |  | active: 3.98 µM
48 | O=C(COc1ccc(Cl)cc1)OCc1cc(=O)n2nc(-c3cccs3)sc2n1 | inactive: -3.28% | 

Row | Compound | activation | Potency
49 | Cc1ccc(Cc2nc3ccccc3nc2SCC(=O)NCCC(C)C)cc1 | inactive: -7.28% | 
50 | COc1ccc(NC(=O)c2csc3c2CCCCC3)cc1 | inactive: -16% | 
51 | Cc1ccc(Cc2c(C)nc3nc(SCC(=O)NC(C)c4ccccc4)nn3c2C)cc1 (stereo not drawn) | inactive: -23.8% | 
52 | CCCN(C(=O)c1nn(-c2ccc(OC)cc2)c(=O)c2c1c1ccccc1n2C)c1ccc(CC)cc1 | inactive: -7.21% | 
53 | CCOc1cccc(C(=O)Nc2ccc(S(=O)(=O)N(Cc3ccccc3)c3ccccc3)cc2)c1 | inactive: -22% | 
54 | CCOc1ccc(NC(=O)Cn2cc(C(=O)c3ccc(CC)cc3)c(=O)c3cc(C)ccc32)cc1 | inactive: -2.79% | 
55 | COc1cccc(-c2nc(SCc3cc(=O)c4ccc(C)c(C)c4[nH]3)n[nH]2)c1 | inactive: -28.1% | 
56 | Cn1c(=O)c2c(-c3ccccc3)n3c4ccccc4nc(-c4ccccc4)c3c2n(C)c1=O | inactive: -23.6% | 
57 | COc1ccc(C(=O)NCC(c2cccnc2)N2CCc3ccccc3C2)cc1OC (stereo not drawn) | inactive: -25.4% | 
58 | COC(=O)c1cc2occc2n1Cc1nc(-c2ccccc2F)oc1C | inactive: -11.7% | 
59 | COc1ccc(S(=O)(=O)c2nnn(-c3cc(Cl)c(OC)cc3OC)c2C)cc1 | inactive: -43.2% | 
60 | CCOCCCn1c(SCC(=O)Nc2ccc(C(C)C)cc2)nc2c(sc3ccccc32)c1=O | inactive: -11.6% | 
61 | C[C@]12C=CC(=O)C=C1CC[C@H]1[C@@H]3C[C@@H](O)[C@](O)(C(=O)CO)[C@@]3(C)C[C@H](O)[C@@]12F | inactive: -16.4% | 
62 | O=C(CSc1nc2c([nH]c3ccccc32)c(=O)n1-c1ccc(F)cc1)NCc1ccccc1 | inactive: -10.8% | 
63 | Cc1ccc(CN2CCC(CNc3ncnc4onc(-c5ccc(F)cc5)c34)CC2)cc1 | inactive: -13.1% | 
64 | CCn1c(=O)c2cc(C(=O)Nc3cc(F)ccc3F)sc2c2ccccc21 | inactive: 12.4% | 
65 | O=C(Nc1cccc(-c2nc3cc(Cl)ccc3o2)c1)c1cc([N+](=O)[O-])ccc1N1CCOCC1 | inactive: -13.5% | 
66 | COc1ccc(CN2C(=O)c3oc4ccccc4c(=O)c3C2c2ccc(O)cc2)cc1 (stereo not drawn) | inactive: -16.3% | 
67 | COc1ccccc1NC(=O)Cn1c(=O)n(Cc2ccccc2)c(=O)c2sc3ccccc3c21 | inactive: 21.2% | 
68 | Cc1ccc(-c2nnc(Nc3cccc(Cl)c3)c3ccccc23)cc1S(=O)(=O)N1CCOCC1 | inactive: -13.6% | 
69 | COc1ccc(C)cc1NC(=O)N(Cc1ccc(C)o1)C1CCN(C(C)=O)CC1 | inactive: -24.1% | 
70 | O=C(Cn1cnc2c(oc3ccccc32)c1=O)Nc1ccccc1C(F)(F)F | inactive: -8.51% | 
71 | COc1ccc(OC)c(NC(=O)CN(C)S(=O)(=O)c2ccc(C(=O)N3CCOCC3)s2)c1 | inactive: -6.4% | 
72 | CC(C)COc1ccc(C(=O)Nc2ccc(S(=O)(=O)Nc3ncccn3)cc2)cc1 | inactive: -22.8% | 

Row | Compound | activation | Potency
73 | O=C(NCc1cccc(Cl)c1)c1cc2ccc3cccnc3c2[nH]1 | inactive: -9.4% | 
74 | CCC(C(=O)Nc1cccc(Cl)c1C)n1nc(-c2ccc(C)cc2)ccc1=O (stereo not drawn) | inactive: -7.15% | 
75 | CCCc1nc2sc3c(N4CCC(C)CC4)ncnc3c2c2c1CCCC2 | inactive: -13.9% | 
76 | CC(C)COc1cccc(C(=O)Nc2ccc(-c3nc4ncccc4o3)cc2)c1 | inactive: -5.4% | 
77 | CC1CCN(C(=O)Cn2cc(SCC(=O)NCc3ccccc3Cl)c3ccccc32)CC1 | inactive: -0.899% | 
78 | CCC(=O)Nc1cc(C)c(O)c(-c2nc3ncccc3o2)c1 | inactive: -12.5% | 
79 | Cc1cc(C)c(NC(=O)CSc2nc3ccccc3nc2N2CCCCC2)c(C)c1 | inactive: -4.47% | 
80 | Cn1c(=O)n(-c2ccc(Br)cc2F)c(=O)c2sc3ccccc3c21 | inactive: -17.6% | 
81 | COc1ccc(Cn2c(=O)[nH]c3cc(C(=O)N4CCN(c5cccc(Cl)c5)CC4)ccc3c2=O)cc1 | inactive: -1.39% | 
82 | CCCN1C(C(=O)c2ccccc2)=C(OC(=O)COc2ccccc2)c2ccccc2S1(=O)=O | inactive: -15.7% | 
83 | O=C(NC1CCCCCC1)c1ccc2c(c1)sc1nc(-c3ccc(F)cc3)cn12 | inactive: -5.02% | 
84 | COc1cc2c(=O)c(S(=O)(=O)c3ccc(F)cc3)cn(Cc3ccc(Cl)cc3)c2cc1OC | inactive: 2.65% | 
85 | CCOC(=O)c1ccc(CN(Cc2ccc(F)cc2)S(=O)(=O)c2cc(C(=O)Nc3cccc(C(F)(F)F)c3)ccc2F)cc1 | inactive: -6.29% | 
86 | CCOc1ccc(NC(=O)CN2C(=O)C(c3ccccc3)=NC23CCC(C)CC3)cc1 (stereo not drawn) | inactive: -19.7% | 
87 | Cc1cccc(N2CCN(S(=O)(=O)c3ccc4c(c3)CCCN4C(=O)C3CCC3)CC2C)c1 (stereo not drawn) | inactive: -9.41% | 
88 | Cc1ccc(Cl)cc1NC(=O)C(C)n1nnc2sc3c(c2c1=O)CCCC3 (stereo not drawn) | inactive: -14% | 
89 | COc1ccc(C2C(C(N)=O)=C(C)Nc3nc(CCCO)nn32)c(OC)c1 (stereo not drawn) | inactive: 3.85% | 
90 | CC1(C)O[C@@H]2C[C@H]3[C@@H]4CCC5=CC(=O)CC[C@]5(C)[C@@]4(F)[C@@H](O)C[C@]3(C)[C@]2(C(=O)CCl)O1 | inactive: -6.45% | 
91 | O=C(Nc1ccc(C(=O)OCc2cc(=O)n3c4c(sc3n2)CCCC4)cc1)c1ccccc1 | inactive: 1.04% | 
92 | CN1C(=O)c2ccccc2Sc2ccc(NC(=O)N3CCN(c4ccccc4F)CC3)cc21 | inactive: -16.1% | 
93 | CCCOc1ccc(C(=O)Nc2cc(-c3nc4cc(C)cc(C)c4o3)ccc2C)cc1 | inactive: -2.8% | 
